The values below come from PubChem BioAssay AID1346428 (National Center for Advancing Translational Sciences (NCATS), 2018).

The campaign covered roughly 48,000 compounds. About 1,200 (2.5%) were called active. Roughly 2% stayed inconclusive and do not appear here.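 Rule for the calls: active = activation of at least 60% and not above a set upper limit (about 1 call in 100 departs from these limits); inconclusive = activation of 40% to 60%, or above that upper limit; inactive = activation under 40%.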 Some of the results follow.

Sequence of UniProt O75388 (O75388 whole entry, looked up): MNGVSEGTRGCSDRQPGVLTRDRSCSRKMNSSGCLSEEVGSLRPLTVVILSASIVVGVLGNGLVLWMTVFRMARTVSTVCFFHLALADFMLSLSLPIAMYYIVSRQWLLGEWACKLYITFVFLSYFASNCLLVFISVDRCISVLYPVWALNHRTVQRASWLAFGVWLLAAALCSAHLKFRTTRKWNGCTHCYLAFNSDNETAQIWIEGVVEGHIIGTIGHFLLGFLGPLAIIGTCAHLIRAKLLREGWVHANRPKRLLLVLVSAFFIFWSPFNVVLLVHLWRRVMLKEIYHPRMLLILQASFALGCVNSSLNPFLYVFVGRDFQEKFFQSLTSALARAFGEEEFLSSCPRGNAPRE

This assay addresses Probable G-protein coupled receptor 32 (Homo sapiens) (UniProt O75388). The assay can be described thus: qHTS for Agonists of Human Resolvin D1 Receptor DRV1. Note: 0% is about no effect. As to conditions: CHO-K1 GPR32 beta-arrestin PathHunter luminescence, 90 min; at 76.9 µM; active compounds read high; zero percent set by DMSO-only wells. In outline:
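CHO-K1 cells stably expressing ProLink-tagged GPR32 and Enzyme Activator-tagged beta-arrestin were seeded at 2,500 cells/well overnight, exposed to compounds for 90 min at 37 °C, then read by beta-Gal complementation chemiluminescence after 1 h detection reagent.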
For orientation: In qHTS, concentration-response curves come from the screen itself.
On to `Cc1cc(-n2ccnc(NCCc3ccc(S(N)(=O)=O)cc3)c2=O)ccc1Br`, for which the activation is active: 120%.
The result for `Cc1ccc(-n2c(COCC(=O)O)nc3cccnc32)cc1` reads inactive: 7.73%; that for `Cc1oc(-c2ccc(Cl)cc2)nc1CN1CCCC(C(=O)NCc2ccccc2)C1` (stereo not given), active: 106%.
With `Cc1ccc(/C=C(\C#N)C(=O)Nc2cccc(Br)c2)o1` the figure was inactive: -4.91%.
With `CCN1CCN(C(c2ccccc2Cl)c2c(O)cc(C)n(CCOC)c2=O)CC1` (stereo not given), the activation was inactive: -5.63%.
With `Cc1ccc(Cl)cc1N1CCN(C(=O)c2cc3c(=O)oc4ccccc4c3s2)CC1` the figure was inactive: 0.505%; with `CCCCn1c(=O)nc2n(-c3ccc(Br)cc3)c3ccccc3cc-2c1=O`, inactive: -13.4%.
With `Nc1nn(-c2ccccc2)nc1C(=O)OCc1ccccc1` the figure was inactive: 28.3%; with `CC1CCCN(CCCNC(=O)Cn2ncc3c([nH]c4ccccc43)c2=O)C1` (stereo not given), inactive: -16.6%; with `N[C@@H](Cc1cc(I)c(Oc2cc(I)c(O)c(I)c2)c(I)c1)C(=O)O`, inactive: -9.09%.
The result for `Cc1nc2ccc(S(=O)(=O)NCC(=O)Nc3ccc(F)cc3F)cc2s1` reads inactive: -14.5%; that for `Cc1ccccc1OCCn1c(CCNC(=O)C2CCCCC2)nc2ccccc21`, inactive: -5.91%; that for `Cc1ccc(S(=O)(=O)N2CCN(Cc3nc4ccc(C)cc4o3)CC2)c(C)c1`, inactive: -0.481%.
With `COc1cccc(C(=O)Nc2nc(-c3ccc(Br)cc3)ns2)c1`, the activation is inactive: 36.5%.
Regarding `CCOC(=O)Cc1ccc(NC(=O)N(Cc2ccc(CC)cc2)Cc2cn[nH]c2-c2ccc(OC)cc2)cc1`, the activation is inactive: -10.7%.
For `COCCCNC(=O)CSC1=Nc2ccccc2C2=NC(CCC(=O)NCc3ccc(OC)cc3)C(=O)N12` (stereo not given), the activation is inactive: 11.8%.
With `CCOC(=O)c1c(C)[nH]c(C)c1S(=O)(=O)N(C)CC(=O)Nc1ccc(C)cc1Br` the figure was inactive: -16.9%.
Regarding `Cc1ccc(-n2c(SCC(=O)N3CCCc4ccccc43)nc3c([nH]c4ccccc43)c2=O)cc1`, the activation is inactive: -27.1%.
The result for `CCc1ccc(C2=CC(c3c(F)cccc3Cl)n3c(nc4ccccc43)N2)cc1` (stereo not given) reads inactive: -8.43%.
`CCc1ccc(OCCn2c(C3CC(=O)N(Cc4ccc(F)cc4)C3)nc3ccccc32)cc1` (stereo not given): the activation was inactive: -35%.
With `CC(C)(C)C(=O)Nc1ccccc1C(=O)OCc1cc(=O)n2ccsc2n1` the figure was inactive: -7.17%.
With `Cc1cccc(C)c1NC(=O)Cn1nnc(C(=O)NCc2ccc(F)cc2)c1N` the figure was inactive: -1.76%.
Consider `Cc1ccccc1CCNC(=O)C1CCN(S(=O)(=O)c2ccc3c(ccn3C)c2)CC1`, for which the activation was inactive: -4.83%.
The result for `O=C(NCC1(c2ccccc2)CCCC1)C(=O)Nc1cccc(Br)c1` reads inactive: -6.9%; that for `Cn1nnnc1SCCCNCc1cccc(OCc2ccc(F)cc2)c1`, inactive: -3.8%.
The result for `Cn1c(=O)c2c(nc(Oc3ccccc3Cl)n2Cc2ccc(C#N)cc2)n(C)c1=O` reads inactive: 1.68%; that for `COc1cc(Nc2ncc3c(n2)CCN(Cc2cccc(C)c2)C3)cc(OC)c1`, inactive: 26.2%; that for `Cc1cccc(N2CCN(C(=O)C3CCN(c4ncnc5c4nc4n5CCCCC4)CC3)CC2C)c1` (stereo not given), inactive: 12.4%.
The result for `CCCN(CCC)C(=O)C(Cc1ccccc1)NS(=O)(=O)c1ccc2c(c1)c(=O)n(C)c(=O)n2C` (stereo not given) reads inactive: -4.07%; that for `CCc1nn(C(C)C(=O)N2CCN(c3ccccc3)CC2)c(=O)c2cc3occc3n12` (stereo not given), inactive: -22.4%; that for `Cc1oc2c(C)c3oc(=O)c(CC(=O)N4CCCCC4)c(C)c3cc2c1C`, inactive: -3.46%.
`CCCSc1ncc(Cl)c(C(=O)Nc2nc3ccc(C)cc3s2)n1`: the activation was inactive: -16.2%.
The result for `CSc1ccc(CCNC(=O)c2ccc3c(Cl)c4c(nc3c2)CCCC4)cc1` reads inactive: 14.4%; that for `Cc1nn2c(=O)cc(COC(=O)c3cccs3)nc2s1`, inactive: -1.5%.
`COc1ccc(S(=O)(=O)c2c(O)c3ccc(C(=O)Nc4ccccc4)cc3[nH]c2=O)cc1`: the activation was inactive: -6.01%.
`Cc1cc(C)c2c(CC(=O)Nc3ccccc3C(F)(F)F)coc2c1`: the activation was inactive: 0.116%.
The result for `CCc1ccccc1NC(=O)Cn1nc(C(F)(F)F)c2c1CCC2` reads inactive: -6.93%.
Turning to `CN(C)c1ccc(C(CNS(=O)(=O)c2ccc(Cl)cc2)N2CCOCC2)cc1` (stereo not given), the activation was inactive: -18%.
Regarding `CCc1nn(CC(=O)Nc2cccc(C(C)=O)c2)c(=O)c2cc3sccc3n12`, the activation is inactive: -25.3%.
With `CCS(=O)(=O)c1ncc(Cl)c(C(=O)NCc2ccc(OC)cc2)n1` the figure was inactive: -14%; with `CCOC(=O)N1CCC(Nc2ccc(Cl)cc2N)CC1`, inactive: -8.41%; with `Cc1cccc(NC(=O)C2CCN(c3nnc(C)c4c(C)n(-c5ccccc5)nc34)CC2)c1C`, inactive: -14.2%.
On to `O=C(NCc1ccccc1)C(=O)NCC(c1ccco1)S(=O)(=O)c1cccs1` (stereo not given), for which the activation is inactive: -16.8%.
The result for `Cc1ccc(Cl)cc1NC(=O)C1CCCN(c2cnccn2)C1` (stereo not given) reads inactive: -1.57%.
With `O=C(CCn1c(=O)c2ccccc2n(Cc2cccc(Cl)c2)c1=O)NCCc1ccccc1` the figure was inactive: 3.39%.
With `CN(c1ccccc1C(=O)O)S(=O)(=O)c1ccc2[nH]c(=O)oc2c1` the figure was inactive: -5.77%; with `CCOC(=O)c1ccccc1NC(=O)Cn1c(=O)n(Cc2nc(C)no2)c(=O)c2ccccc21`, inactive: -23.3%.
Take `CCOC(=O)CSc1nc2cc3c(cc2c(=O)n1Cc1ccc(C(=O)NCCc2ccc(OC)c(OC)c2)cc1)OCO3`: the activation was inactive: -10.8%.
The result for `COc1cc(OC)c(N(C)C(=O)c2c(C)oc3ncn(CC(C)C)c(=O)c23)cc1Cl` reads inactive: -23.8%.
With `Cc1c(-c2ccccc2)nc2c(Cl)cccc2c1C(=O)OCC(=O)c1ccc(F)cc1` the figure was inactive: -7.04%.
With `Cc1cc(C)c2c(CC(=O)N(Cc3ccc(Cl)cc3)Cc3ccco3)coc2c1` the figure was inactive: -28.1%; with `O=C(Nc1ccccc1)c1nc[nH]c1C(=O)O`, inactive: -0.184%.
In the case of `COc1ccc(-c2cc(C(F)(F)F)nc(SCC(=O)NCCc3ccccc3)n2)cc1`, the activation is inactive: 14.1%.
With `CCOc1ccccc1C(=O)N(Cc1sccc1C)C1CCS(=O)(=O)C1` (stereo not given) the figure was inactive: -12%; with `Cc1ccc(NC(=O)Cn2cc(S(=O)(=O)Cc3ccc(F)cc3)c3ccccc32)cc1Cl`, inactive: 16.4%.
